Reference: a collection of fitness landscapes (doi:10.1126/science.1257360)
Some of the results follow.

B1: PhoQ; a variant is named by its letters at X, in order, P23837 (parent)
chain: MKKLLRLFFPLSLRVRFLLATAAVVLVLSLAYGMVALIGYSVSFDKTTFRLLRGESNLFYTLAKWENNKLHVELPENIDKQSPTMTLIYDENGQLLWAQRDVPWLMKMIQPDWLKSNGFHEIEADVNDTSLLLSGDHSIQQQLQEVREDDDDAEMTHSVAVNVYPATSRMPKLTIVVVDTIPVELKSSYMVWSWFIYVLSANLLLVIPLLWVAAWWSLRPIEALAKEVRELEEHNRELLNPATTRELTSLVRNLNRLLKSERERYDKYRTTLTDLTHSLKTPLXXLQXXLRSLRSEKMSVSDAEPVMLEQISRISQQIGYYLHRASMRGGTLLSRELHPVAPLLDNLTSALNKVYQRKGVNISLDISPEISFVGEQNDFVEVMGNVLDNACKYCLEFVEISARQTDEHLYIVVEDDGPGIPLSKREVIFDRGQRVDTLRPGQGVGLAVAREITEQYEGKIVAGESMLGGARMEVIFGRQHSAPKDE

Variants of: B1
Assay: enrichment ratio after two sorts for PhoP signalling (ratio (wild type AVST 3.29)); higher = more functional
Details: with PhoP (E. coli)

| Variant | enrichment ratio |
| --- | --- |
| WIWK | ≤ 0.25 |
| VWMM | ≤ 0.25 |
| GCFM | ≤ 0.25 |
| VWQM | ≤ 0.25 |
| TMCH | 15.9 |
| KRYA | ≤ 0.25 |
| WLGD | ≤ 0.25 |
| AEFI | 5.49 |
| STWK | ≤ 0.25 |
| HETQ | ≤ 0.25 |
| NCLK | ≤ 0.25 |
| ALGF | 3.9 |
| NYIY | ≤ 0.25 |
| NADA | ≤ 0.25 |
| VCCM | 13.1 |
| YPVD | ≤ 0.25 |
| SSPE | ≤ 0.25 |
| HSNE | ≤ 0.25 |
| SSFK | ≤ 0.25 |
| LQKI | ≤ 0.25 |
| SRFS | ≤ 0.25 |
| TGSI | 19.6 |
| AMVD | ≤ 0.25 |
| LMVC | ≤ 0.25 |
| MPQA | ≤ 0.25 |

| Variant | enrichment ratio |
| --- | --- |
| KFVH | ≤ 0.25 |
| SLVP | ≤ 0.25 |
| EQVK | ≤ 0.25 |
| HITF | ≤ 0.25 |
| NPVE | ≤ 0.25 |
| NIWG | ≤ 0.25 |
| GGFT | ≤ 0.25 |
| ANMP | ≤ 0.25 |
| MHVF | ≤ 0.25 |
| SWPG | ≤ 0.25 |
| TTAT | 4.52 |
| LTDI | ≤ 0.25 |
| MPSQ | ≤ 0.25 |
| SSYA | ≤ 0.25 |
| FSVG | ≤ 0.25 |
| YDCW | ≤ 0.25 |
| SVRH | ≤ 0.25 |
| HNQS | ≤ 0.25 |
| TYVC | ≤ 0.25 |
| REYE | ≤ 0.25 |
| APIW | ≤ 0.25 |
| PTCI | ≤ 0.25 |
| GQWL | ≤ 0.25 |
| FVEK | ≤ 0.25 |
| KRSI | ≤ 0.25 |

| Variant | enrichment ratio |
| --- | --- |
| EASD | ≤ 0.25 |
| DNHG | ≤ 0.25 |
| VGMV | 9.12 |
| DALW | ≤ 0.25 |
| QMAP | ≤ 0.25 |
| RWAP | ≤ 0.25 |
| ADIT | ≤ 0.25 |
| TMII | ≤ 0.25 |
| YVVK | ≤ 0.25 |
| LPQR | ≤ 0.25 |
| YVWA | ≤ 0.25 |
| RDNR | ≤ 0.25 |
| RYVH | ≤ 0.25 |
| MVKN | ≤ 0.25 |
| LKTE | ≤ 0.25 |
| TSWW | ≤ 0.25 |
| HFVL | ≤ 0.25 |
| FHIE | ≤ 0.25 |
| RDRK | ≤ 0.25 |
| WKSW | ≤ 0.25 |
| WSEK | ≤ 0.25 |
| CFCG | ≤ 0.25 |
| KCFD | ≤ 0.25 |
| DLHI | ≤ 0.25 |
| RWFQ | ≤ 0.25 |

| Variant | enrichment ratio |
| --- | --- |
| QQWW | ≤ 0.25 |
| QLWR | ≤ 0.25 |
| HQVG | ≤ 0.25 |
| QHNL | 7.19 |
| HRCQ | ≤ 0.25 |
| MVYM | 4.81 |
| NMGD | ≤ 0.25 |
| HGPS | ≤ 0.25 |
| KKGF | ≤ 0.25 |
| IDLR | ≤ 0.25 |
| GGMY | ≤ 0.25 |
| YHIA | ≤ 0.25 |
| TGRN | ≤ 0.25 |
| NGKH | ≤ 0.25 |
| HRRI | ≤ 0.25 |
| SIQE | ≤ 0.25 |
| NYAV | ≤ 0.25 |
| TDQD | ≤ 0.25 |
| QSGG | ≤ 0.25 |
| FMME | ≤ 0.25 |
| AFWR | ≤ 0.25 |
| HWTD | ≤ 0.25 |
| LGQF | ≤ 0.25 |
| PAWE | ≤ 0.25 |
| DMNK | ≤ 0.25 |

| Variant | enrichment ratio |
| --- | --- |
| NAVP | ≤ 0.25 |
| FHEA | ≤ 0.25 |
| PTSQ | ≤ 0.25 |
| AEDL | ≤ 0.25 |
| SPTI | ≤ 0.25 |
| TVCP | ≤ 0.25 |
| DWKW | ≤ 0.25 |
| LFVW | ≤ 0.25 |
| FGGK | ≤ 0.25 |
| LQIW | ≤ 0.25 |
| HEWH | ≤ 0.25 |
| EVNK | ≤ 0.25 |
| LKKL | ≤ 0.25 |
| QPFP | ≤ 0.25 |
| IWTS | ≤ 0.25 |
| VEML | ≤ 0.25 |
| NQLK | ≤ 0.25 |
| PEST | ≤ 0.25 |
| RLSQ | ≤ 0.25 |
| PTDR | ≤ 0.25 |
| STIP | ≤ 0.25 |
| EAKQ | ≤ 0.25 |
| KVAM | ≤ 0.25 |
| GANR | ≤ 0.25 |
| GRQH | ≤ 0.25 |

| Variant | enrichment ratio |
| --- | --- |
| ILSQ | ≤ 0.25 |
| RDQC | ≤ 0.25 |
| SLRQ | ≤ 0.25 |
| SPYI | ≤ 0.25 |
| TDLP | ≤ 0.25 |
| EEHA | ≤ 0.25 |
| HHQF | ≤ 0.25 |
| DTDF | ≤ 0.25 |
| SLYY | ≤ 0.25 |
| KFFH | ≤ 0.25 |
| GEHA | ≤ 0.25 |
| QHAL | ≤ 0.25 |
| AHAV | ≤ 0.25 |
| KHAG | ≤ 0.25 |
| QKIT | ≤ 0.25 |
| WHWY | ≤ 0.25 |
| WMVH | 4.32 |
| VTVV | ≤ 0.25 |
| LQFL | ≤ 0.25 |
| TALV | 10.2 |
| YRNL | ≤ 0.25 |
| LMMW | ≤ 0.25 |
| TDVP | ≤ 0.25 |
| NFKD | ≤ 0.25 |
| SQTY | 8.07 |

| Variant | enrichment ratio |
| --- | --- |
| FHCP | ≤ 0.25 |
| ECDV | ≤ 0.25 |
| HKPV | ≤ 0.25 |
| MLTY | ≤ 0.25 |
| LYCV | ≤ 0.25 |
| WNPM | ≤ 0.25 |
| DGPY | ≤ 0.25 |
| SVEI | ≤ 0.25 |
| VYTQ | ≤ 0.25 |
| HVVS | ≤ 0.25 |
| VRYP | ≤ 0.25 |
| LQKR | ≤ 0.25 |
| TNWP | ≤ 0.25 |
| WNCT | ≤ 0.25 |
| KPDL | ≤ 0.25 |
| SQSN | 7.46 |
| WTWW | ≤ 0.25 |
| GQKF | ≤ 0.25 |
| LMKL | ≤ 0.25 |
| NQLQ | ≤ 0.25 |
| TRHG | ≤ 0.25 |
| DMYA | ≤ 0.25 |
| GNRF | ≤ 0.25 |
| PWCT | ≤ 0.25 |
| MFHE | ≤ 0.25 |

| Variant | enrichment ratio |
| --- | --- |
| SVLI | 2.91 |
| QIST | ≤ 0.25 |
| ASGH | ≤ 0.25 |
| QHFC | ≤ 0.25 |
| HVAP | ≤ 0.25 |
| NRNR | ≤ 0.25 |
| MFML | ≤ 0.25 |
| PMYF | ≤ 0.25 |
| VHNA | ≤ 0.25 |
| CNFF | ≤ 0.25 |
| RCTI | ≤ 0.25 |
| TVCW | ≤ 0.25 |
| RTQR | ≤ 0.25 |
| VVRD | ≤ 0.25 |
| TATI | 5.19 |
| ETEC | ≤ 0.25 |
| WDYH | ≤ 0.25 |
| SSYP | ≤ 0.25 |
| RNRR | ≤ 0.25 |
| PDHI | ≤ 0.25 |
